# Measured values taken from the supplement of paper PMC8728848.
# The other results are listed elsewhere or left out.
# Columns and labels:
# Assay in all cases: glycan array binding signal (z-score within array); higher = stronger binding
# Conditions in all cases: glycan notation: IUPAC condensed, linker removed
# [1] = target: Fuc(a1-2)[GalNAc(a1-3)]Gal(b1-3)GlcNAc(b1-3)GalNAc
# Method in brief: (§1)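 Negative Z-scores can be read as non-binding. The Z-score is calculated within each array and then averaged across arrays of one protein sequence at different concentrations or buffers and across linkers. Arrays, 3228 in all, were curated from the Consortium for Functional Glycomics database and kept only where the protein sequence was available.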
# [2] = target: Fuc(a1-2)[GalNAc(a1-3)]Gal(b1-3)GlcNAc(b1-6)GalNAc
# Method in brief: as §1
# [3] = target: Fuc(a1-2)[GalNAc(a1-3)]Gal(b1-4)Glc
# Method in brief: as §1
# [4] = target: Fuc(a1-2)[GalNAc(a1-3)]Gal(b1-4)GlcNAc
# Method in brief: as §1
# [5] = target: Fuc(a1-2)[GalNAc(a1-3)]Gal(b1-4)GlcNAc(b1-2)Man
# Method in brief: as §1
# [6] = target: Fuc(a1-2)[GalNAc(a1-3)]Gal(b1-4)GlcNAc(b1-2)Man(a1-3)[Fuc(a1-2)[GalNAc(a1-3)]Gal(b1-4)GlcNAc(b1-2)Man(a1-6)]Man(b1-4)GlcNAc(b1-4)GlcNAc
# Method in brief: as §1
# [7] = target: Fuc(a1-2)[GalNAc(a1-3)]Gal(b1-4)GlcNAc(b1-2)Man(a1-3)[Fuc(a1-2)[GalNAc(a1-3)]Gal(b1-4)GlcNAc(b1-2)Man(a1-6)]Man(b1-4)GlcNAc(b1-4)[Fuc(a1-6)]GlcNAc
# Method in brief: as §1
# [8] = target: Fuc(a1-2)[GalNAc(a1-3)]Gal(b1-4)GlcNAc(b1-3)Gal(b1-4)GlcNAc
# Method in brief: as §1
# [9] = target: Fuc(a1-2)[GalNAc(a1-3)]Gal(b1-4)GlcNAc(b1-3)Gal(b1-4)GlcNAc(b1-3)Gal(b1-4)GlcNAc
# Method in brief: as §1
# [10] = target: Fuc(a1-2)[GalNAc(a1-3)]Gal(b1-4)GlcNAc(b1-3)GalNAc
# Method in brief: as §1
# [11] = target: Fuc(a1-2)[GalNAc(a1-3)]Gal(b1-4)GlcNAc(b1-3)[Fuc(a1-2)[GalNAc(a1-3)]Gal(b1-4)GlcNAc(b1-6)]GalNAc
# Method in brief: as §1
# [12] = target: Fuc(a1-2)[GalNAc(a1-3)]Gal(b1-4)GlcNAc(b1-6)GalNAc
# Method in brief: as §1
# [13] = target: Fuc(a1-2)[GalNAc(a1-3)]Gal(b1-4)[Fuc(a1-3)]GlcNAc
# Method in brief: as §1
# [14] = target: Fuc(a1-2)[GalNAc(a1-3)]Gal(b1-4)[Fuc(a1-3)]GlcNAc(b1-3)GalNAc
# Method in brief: as §1
# [15] = target: Fuc(a1-2)[GalNAc(a1-4)]Gal(b1-4)GlcNAc
# Method in brief: as §1
# [16] = target: Fuc(a1-2)[GalNAc(b1-3)]Gal
# Method in brief: as §1
# [17] = target: Fuc(a1-3)GlcNAc
# Method in brief: as §1
# [18] = target: Fuc(a1-3)[Gal(b1-4)]Glc6S
# Method in brief: as §1
# [19] = target: Fuc(a1-3)[Gal(b1-4)]GlcNAc
# Method in brief: as §1
# [20] = target: Fuc(a1-3)[Gal(b1-4)]GlcNAc(b1-2)Man
# Method in brief: as §1
# [21] = target: Fuc(a1-3)[Gal(b1-4)]GlcNAc(b1-2)Man(a1-3)[Fuc(a1-3)[Gal(b1-4)]GlcNAc(b1-2)Man(a1-6)]Man(b1-4)GlcNAc(b1-4)GlcNAc
# Method in brief: as §1
# [22] = target: Fuc(a1-3)[Gal(b1-4)]GlcNAc(b1-2)Man(a1-3)[Fuc(a1-3)[Gal(b1-4)]GlcNAc(b1-2)Man(a1-6)]Man(b1-4)GlcNAc(b1-4)[Fuc(a1-6)]GlcNAc
# Method in brief: as §1
# [23] = target: Fuc(a1-3)[Gal(b1-4)]GlcNAc(b1-3)Gal(b1-3)[Fuc(a1-4)]GlcNAc
# Method in brief: as §1
# [24] = target: Fuc(a1-3)[Gal(b1-4)]GlcNAc(b1-3)Gal(b1-4)[Fuc(a1-3)]GlcNAc
# Method in brief: as §1
# [25] = target: Fuc(a1-3)[Gal(b1-4)]GlcNAc(b1-3)Gal(b1-4)[Fuc(a1-3)]GlcNAc(b1-3)Gal(b1-4)[Fuc(a1-3)]GlcNAc
# Method in brief: as §1
# [26] = target: Fuc(a1-3)[Gal(b1-4)]GlcNAc(b1-3)GalNAc
# Method in brief: as §1
# [27] = target: Fuc(a1-3)[Gal(b1-4)]GlcNAc(b1-6)GalNAc
# Method in brief: as §1
# [28] = target: Fuc(a1-3)[Gal(b1-4)]GlcNAc(b1-6)[Gal(b1-3)GlcNAc(b1-3)]Gal(b1-4)Glc
# Method in brief: as §1
# [29] = target: Fuc(a1-3)[Gal(b1-4)]GlcNAc6S
# Method in brief: as §1
# [30] = target: Fuc(a1-3)[Gal3S(b1-4)]Glc
# Method in brief: as §1
# [31] = target: Fuc(a1-3)[Gal3S(b1-4)]GlcNAc
# Method in brief: as §1
# [32] = target: Fuc(a1-3)[Gal3S(b1-4)]GlcNAc6S
# Method in brief: as §1
# [33] = target: Fuc(a1-3)[GalNAc(b1-4)]GlcNAc
# Method in brief: as §1
# [34] = target: Fuc(a1-3)[GalNAc(b1-4)]GlcNAc6S
# Method in brief: as §1
# [35] = target: Fuc(a1-4)GlcNAc
# Method in brief: as §1
# [36] = target: Fuc(b1-3)GlcNAc
# Method in brief: as §1
# [37] = target: Gal(a1-2)Gal
# Method in brief: as §1
binder,measurement,setting,value
DrGal9 (Danio rerio) (protein) MAFYQQPPYYNPRIPFSGPIQGGLQDGKSIIISGRVLPGANRFHVNLQCGSHSEANVALHFNPRYEDTDYVVNNSYLNRTWGSEERKYESPFAQGQTFTLQILVAQDKYKISTNGRHFMDYKHRIPFTQVDTVAVEGMVEVNSVAFQNPAGFIPPQAGYAPQYAVPPGCGFPAFPSAPNYTIPHKTVMNGGLHPGKNIVINGVVNPNAKSIIFNLCYRSGIAFHYNPRFDENVVVRNTNQMEKWGAEERFGGLPFHKGQPFQVTISCNPQHYNVFVNGKQEHTYKHRYTKLNDIDILEICGDLQLTSVQA,glycan array binding signal (z-score),[1],-0.34
same,glycan array binding signal (z-score),[2],-0.403
same,glycan array binding signal (z-score),[3],-0.384
same,glycan array binding signal (z-score),[4],-0.391
same,glycan array binding signal (z-score),[5],-0.417
same,glycan array binding signal (z-score),[6],-0.329
same,glycan array binding signal (z-score),[7],-0.388
same,glycan array binding signal (z-score),[8],-0.199
same,glycan array binding signal (z-score),[9],0.375
same,glycan array binding signal (z-score),[10],-0.416
same,glycan array binding signal (z-score),[11],-0.198
same,glycan array binding signal (z-score),[12],-0.409
same,glycan array binding signal (z-score),[13],-0.36
same,glycan array binding signal (z-score),[14],-0.336
same,glycan array binding signal (z-score),[15],-0.386
same,glycan array binding signal (z-score),[16],-0.234
same,glycan array binding signal (z-score),[17],-0.395
same,glycan array binding signal (z-score),[18],-0.345
same,glycan array binding signal (z-score),[19],-0.386
same,glycan array binding signal (z-score),[20],-0.386
same,glycan array binding signal (z-score),[21],-0.409
same,glycan array binding signal (z-score),[22],-0.385
same,glycan array binding signal (z-score),[23],-0.38
same,glycan array binding signal (z-score),[24],-0.375
same,glycan array binding signal (z-score),[25],-0.405
same,glycan array binding signal (z-score),[26],-0.397
same,glycan array binding signal (z-score),[27],-0.378
same,glycan array binding signal (z-score),[28],0.002
same,glycan array binding signal (z-score),[29],-0.316
same,glycan array binding signal (z-score),[30],-0.389
same,glycan array binding signal (z-score),[31],-0.395
same,glycan array binding signal (z-score),[32],-0.346
same,glycan array binding signal (z-score),[33],-0.355
same,glycan array binding signal (z-score),[34],-0.402
same,glycan array binding signal (z-score),[35],-0.371
same,glycan array binding signal (z-score),[36],-0.38
same,glycan array binding signal (z-score),[37],-0.41
